Hit rate of the full screen: of about 43,000 compounds, about 200 (0.47%) were called active. Another 12% or so got no clear call; they are omitted. The call rests on the fitted dose curve; in most records, active means well fitted cell-killing curve with a large enough effect; inconclusive means small, poorly fitted or top-dose-only effect, or effect the other way; inactive means flat fitted curve, though single readings scatter. This is one part of the list.
Test: Cell viability qHTS assay in S16 Pmp22-F2sN cells; further: nearly all actives have a fitted effect of over 65% in size
Details: S16 Pmp22-F2sN Schwann cells viability, CellTiter-Glo, 24 h; series mostly up to 57.5 µM; activity change, negative = cytotoxicity: at the top concentration
Summary of the method: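 S16 Pmp22-F2sN Schwann cells (500-1,000/well) in phenol-red-free DMEM with 10% FBS received 23 nL compound by pin tool for 24 h at 37 °C. Viability was then read as CellTiter-Glo luminescence after 15 min at room temperature.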
On the % scale 0 is the no-effect control and ±100 the full control effect.

| SMILES | activity change, negative = cytotoxicity |
| --- | --- |
| Cc1ccc(C)c(N2CCN(c3nc4ccccc4n4c(C)nnc34)CC2)c1 | inactive: -13.1% |
| Cc1ccc(NC(=O)C(c2ccccc2)N2Cc3ccccc3C2=O)cc1Cl (configuration not stated) | inactive: 10.6% |
| O=C(CSc1nc2c(c(=O)[nH]1)CCCC2)Nc1ccc(Br)cc1 | inactive: -11.9% |
| CC(C)(C)OC(=O)N1CCC(c2c(C(=O)Nc3ccc4c(c3)OCCO4)cnn2-c2ccccc2)CC1 | inactive: -8.98% |
| CCc1ccc(NC(=O)c2nn(-c3ccc(C)cc3)c(=O)n(C)c2=O)cc1 | inactive: 9.79% |
| CCc1ccccc1NC(=O)CN1C(=O)c2cccnc2Oc2ccc(Cl)cc21 | inactive: 3.72% |
| CCOc1ccc(Br)cc1CNCCSc1nnnn1-c1ccccc1 | inactive: -6.67% |
| COc1ccc(CNC(=O)c2cc3c(s2)-c2c(C)cccc2OC3)cc1 | inactive: -12.6% |
| CCOC(=O)c1oc2c(c1C)-c1nn(Cc3ccccc3Cl)cc1CC2 | inactive: -30% |
| Cc1ccc(C)c(NC(=O)C(=O)NCCc2csc3nc(-c4ccccc4C)nn23)c1 | inactive: -9.3% |
| COC(=O)NCc1c(C)nn(-c2ccccc2)c1-n1cccc1 | inactive: 0.0575% |
| Cc1cc2c(cc1C)NC(CC(=O)Nc1ccccc1SC(F)(F)F)C(=O)N2 (configuration not stated) | inactive: 1.09% |
| CCCCOc1ccc(NC(=O)Cn2nnnc2-c2ccccc2F)cc1 | inactive: -0.977% |
| O=C(COCc1cc(-c2cccs2)on1)Nc1ccc(OC(F)(F)F)cc1 | inactive: -7.94% |
| Cc1ccc(S(=O)(=O)c2nc(-c3ccco3)oc2SCC(C)C)cc1 | inactive: -17.1% |
| COc1cc(OC)c(NC(=O)Cn2cnc3sc(C)c(S(=O)(=O)N4CCN(C)CC4)c3c2=O)cc1Cl | inactive: -8.14% |
| COc1ccc2ncc3c(-c4ccc(C)c(C)c4)nn(CC(=O)NC4CCCCC4)c3c2c1 | inactive: 12.3% |
| Cc1cnc2c(c1SCC(=O)Nc1ccc(F)cc1F)c(=O)n(C)c(=O)n2C | inactive: 10% |
| Cc1cc(F)ccc1NC(=O)C1CCCN(S(=O)(=O)c2ccc3c(c2)CCCC(=O)N3)C1 (configuration not stated) | inactive: 10.1% |
| COc1ccc(N(Cc2cccs2)C(=O)COc2ccc(C(C)C)cc2)cc1 | inactive: -21.8% |
| COc1ccc(S(=O)(=O)c2c(Nc3ccc(C)cc3)sc(C(=O)c3ccc4c(c3)OCO4)c2N)cc1 | inactive: 11.3% |
| CCc1cc2c(cc3c(=O)n(CC(=O)N4CCCCC4)ncn32)s1 | inactive: 10.4% |
| CCOc1ccc2nc(N3CCCC(C(=O)Nc4cccc(Cl)c4C)C3)sc2c1 (configuration not stated) | inactive: -0.677% |
| CCCCN(CCCC)CCNC(=O)c1cc(-c2cccnc2)nc2ccc(S(=O)(=O)N3CCC(C)CC3)cc12 | inactive: 12.5% |
| CCCCn1cc(S(=O)(=O)c2ccc(F)cc2)c(=O)c2ccccc21 | inactive: 5.54% |
| COc1ccccc1CNC(=O)c1ccc(-c2nc(CS(=O)c3ccccc3)c(C)o2)cc1 (configuration not stated) | inactive: -16.3% |
| Cc1ccc(Cl)cc1NC(=O)CN1C(=O)COc2ccc(S(=O)(=O)N3CCOCC3)cc21 | inactive: -2.23% |

From PubChem BioAssay AID1508642 (National Center for Advancing Translational Sciences (NCATS), 2021)
